From US20130158073A1, “Methods Of Diminishing Co-Abuse Potential” (priority 2004, published 2013)

Test system: male Sprague-Dawley rats
Details: coadministered with 10% w/v ethanol, i.p. 15 minutes before session; at one or more doses; group average

SMILES	percentage of responses during test sessions on the lever associated with ethanol/cocaine [%]
COC(=O)C(c1ccccc1)C1CCCCN1 (racemic) [d,l-MPH, d,l-methylphenidate HCl]	100
COC(=O)[C@H]1[C@@H](OC(=O)c2ccccc2)C[C@@H]2CC[C@H]1N2C [cocaine]	100

Counter-ions that a name gives are not always drawn.
